# Source: PMC6919601, “Identification of Plasmodium dipeptidyl aminopeptidase allosteric inhibitors by high throughput screening” (PLoS ONE, 2019)
# Out of some 110,000 compounds screened, about 230 (0.21%) showed an effect of 50% or more. The list shows a part of the results. *1 amine or outer side, *2 acyl side, *3 side chain or, on linkers, in order; H or OH if unused. Where a SMILES comes first, the peptide text is derived from it. [ ]: non-standard residue; d: D form. The star is where a group is joined. aIle = CC[C@@H](C)[C@H](N)C(=O)O; hPhe = N[C@@H](CCc1ccccc1)C(=O)O; CO = O=C([*:1])[*:2]; NHBn = c1ccc(CN*)cc1; CH2F = FC*
# Target: DPAP1 (Plasmodium falciparum, UniProt Q8IIJ9)
# Sequence (Q8IIJ9 whole entry, looked up): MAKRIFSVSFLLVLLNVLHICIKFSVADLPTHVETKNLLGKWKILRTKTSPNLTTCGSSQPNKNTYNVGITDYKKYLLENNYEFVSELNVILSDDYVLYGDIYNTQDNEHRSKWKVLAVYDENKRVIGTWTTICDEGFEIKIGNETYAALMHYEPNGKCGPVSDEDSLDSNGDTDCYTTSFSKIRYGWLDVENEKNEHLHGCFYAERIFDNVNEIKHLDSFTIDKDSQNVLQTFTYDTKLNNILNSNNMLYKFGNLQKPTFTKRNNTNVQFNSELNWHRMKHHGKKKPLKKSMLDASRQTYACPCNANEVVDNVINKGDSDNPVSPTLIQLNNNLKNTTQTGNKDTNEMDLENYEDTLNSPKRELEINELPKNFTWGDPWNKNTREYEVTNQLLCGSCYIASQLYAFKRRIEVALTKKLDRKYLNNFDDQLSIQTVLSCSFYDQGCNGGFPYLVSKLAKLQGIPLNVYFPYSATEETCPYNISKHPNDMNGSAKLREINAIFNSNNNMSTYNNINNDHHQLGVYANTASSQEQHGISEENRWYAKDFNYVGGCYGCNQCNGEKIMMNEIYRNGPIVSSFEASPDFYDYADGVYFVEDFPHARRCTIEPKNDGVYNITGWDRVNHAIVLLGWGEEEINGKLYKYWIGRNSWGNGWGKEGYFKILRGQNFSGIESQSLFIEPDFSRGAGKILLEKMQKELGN
# Experiment: primary screen, percent inhibition; read by cleavage of a fluorogenic dipeptide substrate; higher = more effect of the substance
# Set-up: species or system P. falciparum D10 trophozoite lysates; single well
# 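Note: 30 min substrate incubation versus DMSO and 10 µM JCP410 controls.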
row,Compound,% Inhibition @ 10 uM [%]
1,Cc1ccc(S(=O)(=O)N(CCC(C)(C)c2ccccc2)CC(=O)O)cc1,-5.46
2,O=S1(=O)C[C@@H](O)[C@H](Nc2ccccc2)C1,0.132
3,C=CCN(CC=C)C(=O)Nc1ccc2nc(C)sc2c1,6.63
4,Cn1c(CNc2ccccc2O)nc2ccccc21,-4.98
5,CC(=O)N1CCC(N2CCN(CCO)CC2)CC1,-3.8
6,COc1ccccc1C(=O)N1CCN(S(=O)(=O)c2ccc(Cl)cc2)CC1,-7.18
7,Cc1ccc(OCC(=O)Nc2nccs2)c(C)c1,3.24
8,CCOCCCNC(=O)Cn1ncc2c(C)n(Cc3ccccc3F)c(C)c2c1=O,-2.17
9,CC1(C)[C@H]2CC=C(CN3CCCC3CO)[C@@H]1C2 (some centres unmarked),-3.5
10,COc1ccc(NC(=O)c2cnn3c2NC(c2ccc(F)cc2)CC3C(F)(F)F)c(OC)c1 (centres unmarked),7.06
11,O=C1c2[nH]nc(-c3ccccc3O)c2C(c2ccccc2F)N1CCO (centres unmarked),3.62
12,CC(C)C[C@H](NC(=O)[C@H](CC(C)C)NC(=O)c1ccc(-c2csc(N=C(N)N)n2)cc1)C(=O)O,-3.04
13,COc1cc(CNc2ccc3[nH]c(O)nc3c2)ccc1OCc1cccs1,4.76
14,C=CCn1c(Sc2nc(C)cs2)nc2c1c(=O)[nH]c(=O)n2C,2.41
15,CC(C)NC(=O)CSCc1cccc(Br)c1,-5.47
16,CCCN1CCN(c2ncnc3scc(-c4ccccc4)c23)CC1,0.219
17,Cn1ccnc1C(O)(c1ccccc1)c1nccn1C,1.43
18,COc1ccc(Br)cc1CN1CCN(C(=O)c2ccncc2)CC1,2.73
19,CCCCOc1ccc(C(=O)NC(C)C2COc3ccccc3O2)cc1OC (centres unmarked),5.53
20,COc1ccc(-c2[nH]c3ccccc3c2SCCNC(=O)c2ccco2)cc1,-6.5
21,CC(C)=CCCCCCCN1CCCCC1CCO (centres unmarked),-6.62
22,O=S(=O)(NCc1ccccc1Cl)c1ccc(-c2cc(C(F)(F)F)no2)s1,4.55
23,COc1c(Cl)cc(Cl)cc1C(=O)Nc1ccccc1O,2.27
24,COc1ccc(CNC(=O)c2cc(-c3ccccc3O)on2)cc1,-3.77
25,CC1CN(Cc2nc3c(c(=O)n(C)c(=O)n3C)n2Cc2cccc3ccccc23)CC(C)O1 (centres unmarked),1.23

row,Compound,% Inhibition @ 10 uM [%]
1,CCC1=NC(c2ccccc2)(c2ccccc2)c2ccccc2O1,5.66
2,O=C(Nc1cccc(NC(=O)c2ccco2)n1)c1ccco1,3.56
3,CCC(=O)/N=C(\NC(=O)CC)Nc1nc(C)c2cc(OC)ccc2n1,-1.44
4,Cc1cc(OCC(=O)NCc2ccc(F)cc2)ccc1Cl,6.65
5,CCOc1ccc(C2C3=C(O)CC(C)(C)CC3=Nc3ncnn32)cc1OC (centres unmarked),-7.08
6,c1ccc(CCN2CCC(NC3C4CC5CC(C4)CC3C5)CC2)cc1 (centres unmarked),0.0792
7,C=CCOc1ccc(/C=C2\SC(=O)N(Cc3ccc(F)cc3)C2=O)cc1,-7.18
8,Cc1ccc(C2C(=O)N(C3CCCC3)CC(=O)N2CC2COc3ccccc3O2)cc1 (centres unmarked),-5.92
9,CCCCNC(=O)C1Sc2nnc(-c3ccccc3)n2NC1c1ccc(C)cc1 (centres unmarked),1.72
10,Cc1ccc(N2C(=O)C3ON(c4ccccc4)C(c4ccco4)C3C2=O)cc1 (centres unmarked),-2.53
11,Cc1cccc(/N=C/c2c(O)[nH]c3ccccc23)n1,-5.62
12,Cc1ccc(N(CC(=O)Nc2ccc(CC#N)cc2)S(=O)(=O)c2ccccc2)c(C)c1,-6.77
13,CC[C@@H](C)[C@H](NC(=O)NCc1ccccc1)C(=O)N[C@@H](CCc1ccccc1)C(=O)CF ({NHBn-CO}-[aIle]-[hPhe]-CH2F),0.079
14,Clc1cccc(Cl)c1CNc1ccc(CNc2nc[nH]n2)cc1,2.48
15,Oc1ccc(Br)cc1CN1CCN(Cc2ccccc2C(F)(F)F)CC1,-5.28
16,O=C(CC(c1ccccc1)c1ccccc1)N1CCN(c2ncccn2)CC1,-1.24
17,COc1ccc(C(=O)NCCCCCC(=O)O)cc1,3.66
18,Cc1ccsc1-c1nnc2n(Cc3ccccc3)c(=O)c3ccccc3n12,0.00665
19,C#CCSc1ccccc1C(=O)O,4.88
20,COc1ccc(-c2c(Cc3ccccc3)nn3c(C)cc(C)nc23)cc1,-1.99
21,CC[n+]1c(C=C2C=CN(C)C=C2)ccc2cc(C)ccc21,21.3
22,CC(C)C[C@H](NC(=O)N1CCCCCC1)C(=O)NCC#N,2.87
23,Cn1cc(/C=C2/SC(Nc3ccccc3)=NC2=O)c2ccccc21,-1.89
24,Cc1ccc(C2OC3(C(=O)c4ccccc4C3=O)C3C(=O)N(c4ccc(F)c(Cl)c4)C(=O)C23)cc1 (centres unmarked),2.6
25,FC(F)(F)c1cc(-c2ccc3c(c2)OCO3)nc(NC2CCCCC2)n1,-2.95

row,Compound,% Inhibition @ 10 uM [%]
1,O=C(COc1ccc2ccccc2c1Br)Nc1ccc(S(=O)(=O)N2CCCC2)cc1,-0.305
2,CCn1c(/C=N/n2cnnc2)nc2ccccc21,4.35
3,c1cc2c(cc1CN1CCC(N3CCCCC3)CC1)OCO2,-4.6
4,Cc1nc2ccc(Cl)cc2c2c(N)c3ccccc3n12,66
5,CCN1C(=O)/C(=C/c2ccc(C)o2)S/C1=N/c1ccc(OC)cc1,-1.57
6,CN1CCN(CCCNC(=O)CCCn2c(=O)c3cccn3c3cccnc32)CC1,-2.15
7,Cc1cc(=O)n2nc(N(C)CC(=O)NCc3ccc(OC(C)C)cc3)sc2n1,1.38
8,Cc1ccc(CN(C(=O)C2C(C=C(Cl)Cl)C2(C)C)C2CCS(=O)(=O)C2)o1 (centres unmarked),-2.85
9,CCN1CCCC1CNC(=O)CCn1c(=O)c2cccn2c2cccnc21 (centres unmarked),1.77
10,O=C(O)[C@@H]1CSC(c2ccc([N+](=O)[O-])cc2)N1 (some centres unmarked),-6.25
11,CCCC1CCc2c(sc(NC(=O)c3cccs3)c2C(N)=O)C1 (centres unmarked),8.27
12,COc1ccc(NC(=O)c2ccc(OC(C)C)cc2)cc1,-5.6
13,CC1CCCC(NC(=O)C2CCN(c3ncnc4c3sc3cccc(F)c34)CC2)C1C (centres unmarked),-0.637
14,CCCC[C@H](NC(=O)[C@H](CC(C)C)NC(=O)OCc1ccccc1)C(=O)CC(=O)N1CCCC1,1.35
15,O=C(Nc1c(-c2ccccc2)nc2sccn12)c1ccccc1,-5.51
16,O=C(Nc1nccs1)C(Cc1ccccc1)N1C(=O)C2C3C=CC(C3)C2C1=O (centres unmarked),1.12
17,COc1ccc(S(=O)(=O)N(C)CC(=O)Nc2ccccc2C(F)(F)F)cc1OC,-0.891
18,CC1CC(C)CN(C(=O)Cn2ncc3c4ccccc4nc-3c2O)C1 (centres unmarked),3.5
19,O=C(COc1ccc(Cl)cc1)NCc1nnc(SCC(=O)NCC2CCCO2)o1 (centres unmarked),0.163
20,CCOc1ccc(C2CC(=O)N3CN(C)CSC3=C2C#N)cc1OC (centres unmarked),47.5
21,OCCN1CCN(Cc2cccc(Cl)c2)CC1,3.85
22,Cc1cc(NC(=O)c2cc(-c3ccccc3O)no2)nn1CC(=O)N1CCOCC1,0.526
23,CCC[C@H](NC(=O)C1(NC(=O)c2ccc(C(F)(F)F)cc2)CCCCC1)C(=O)c1nc2ccccc2o1,-8.26
24,CN1CCN(CCCNC(=O)c2nn(C)c3c2CS(=O)(=O)c2ccccc2-3)CC1,1.51
25,O=C(c1ccco1)N1CCN(C(=O)c2ccc(CS(=O)Cc3ccc(Cl)cc3)o2)CC1 (centres unmarked),3.88

row,Compound,% Inhibition @ 10 uM [%]
1,Cc1sc2nc3c4ccccc4c(NCC4CCCO4)nn3c(=O)c2c1C (centres unmarked),-2.09
2,CCN(CC)C(=O)/C(=C/c1cn(CC)c2ccccc12)NC(=O)c1cc(OC)c(OC)c(OC)c1,-0.0235
3,CCOc1ccc(CCNCc2c(C(=O)O)c(C)n(Cc3ccc(F)cc3)c2C)cc1,-1.92
4,COc1ccc2nc(NC(=O)CNS(=O)(=O)c3cccs3)sc2c1,-2.12
5,Cc1ccc(NC2=NC(=O)CC(C(=O)Nc3cc(C)cc(C)c3)S2)cc1 (centres unmarked),16.7
6,Cc1ccccc1CNCc1ccc(C(=O)O)s1,-0.0309
7,O=C1CC(c2ccccc2)c2cc(Cl)ccc2O1 (centres unmarked),-0.0735
8,CC1=C(C(=O)Nc2ccc(Br)cn2)C(c2ccccc2C)C2=C(O)CCCC2=N1 (centres unmarked),2.7
9,CCCn1c(CCCNC(=O)c2ccc(F)cc2)nc2ccccc21,6.03
10,Cc1ccc(CN2C(=O)N/C(=C/c3cccc(C(F)(F)F)c3)C2=O)cc1,0.755
11,Cc1ccc(N2C(=O)c3ccc(C(=O)c4ccc5c(c4)C(=O)N(c4ccc(C)cc4O)C5=O)cc3C2=O)c(O)c1,1.9
12,CCN1CCN(Cc2cccc3ccccc23)CC1,-0.127
13,Cc1c(CNC2CCCCC2C)c(C(=O)O)c(C)n1Cc1ccccc1F (centres unmarked),-0.23
14,CCc1ccc(OCC(=O)N2CCc3ccccc32)cc1,-3.49
15,O=C(CNC(=O)c1ccccc1)NC1(C(=O)NC2CCCCC2)CCCCC1,0.457
16,CCCCNC1=Nc2ccccc2CCC1,1.24
17,CC(CNc1cnn(C23CC4CC(CC(C4)C2)C3)c(=O)c1Cl)c1ccccc1 (centres unmarked),1.72
18,COC(=O)C1=CN(Cc2ccc(F)cc2)C=C(C(=O)OC)C1c1cc(Br)ccc1OC,4.99
19,COC(=O)c1ccc(/C=c2\sc3nc4ccccc4n3c2=O)cc1,-0.414
20,c1ccc(CN2CCN(C3CCCCCCC3)CC2)cc1,0.472
21,C1=C(c2c[nH]c3ccccc23)CCN(Cc2ccccc2)C1,-0.0309
22,CCc1cc2c(NCCc3ccccc3)ncnc2s1,2.64
23,COc1cccc2c1Oc1ncccc1N(c1ccc(C(=O)NCc3ccco3)s1)C2,-3.2
